# Source: patent US10918643B2, “No-donors for the treatment of cerebrovascular vasospasms after brain hemorrhage” (Westfaelische Wilhelms-Universitaet Muenster, priority 2015, dated 2021)
# System: cerebral vasospasm of the middle cerebral artery (MCA) after aneurismal SAH
# Assay: Transcranial Doppler (TCD) mean blood flow velocity in the MCAs, rescue treatment of one SAH patient
# Details: 2nd day after SAH; increase from 130 cm/sec under anti-vasospastic therapy with Nimodipine (6x60 mg or 1-2 mg/hr i.v.)
smiles,measurement,value
COCCOC(=O)C1=C(C)NC(C)=C(C(=O)OC(C)C)C1c1cccc([N+](=O)[O-])c1 (stereo not shown) [Nimodipine],mean blood flow velocity in the right MCA,160 to 190 cm/s
